Laboratory results from PubChem BioAssay AID651820 (National Center for Advancing Translational Sciences (NCATS), 2012).
Among all 340,000 compounds or so, about 12,000 (3.5%) were called active. Inconclusive means that the source gave no clear call. Such entries were picked first, then a sample of the others. The call rests on the fitted dose curve; in most records, active means well fitted inhibition curve with a large enough effect; inconclusive means small, poorly fitted or top-dose-only effect, or another doubt; inactive means no such curve, though single readings can be large or run the other way. No potency is given beside an inconclusive call; the fits are too rough.

Assay: qHTS Assay for Inhibitors of Hepatitis C Virus (HCV)
Settings: Huh7.5.1 HCVcc-Cre (HCVcc is cell-culture hepatitis C virus) infection, luciferase reporter, 44 h; activity change, negative = inhibition: at 41.8 µM (top of the series) unless noted
Outline: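 1,000 cells/well; 4 h culture; + compound; + HCVcc-Cre (~0.5 moi); 44 h; luciferase substrate, RT 15 min; read 15 sec.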
On the % scale 0 is the no-effect control and ±100 the full control effect; potency means the concentration at half of the fitted maximal effect; tags describe the fitted curve by direction and shape.

| Compound | Potency | activity change, negative = inhibition |
| --- | --- | --- |
| CCc1ccccc1NC(=O)C1c2ccccc2Oc2ccccc21 | inconclusive [inhibitor, single point] |  |
| Fc1ccc(Cn2nnnc2C(c2cccs2)N2CCCCCC2)cc1 (stereo not given) | inconclusive [inhibitor, single point] |  |
| CC1(c2ccccc2)NC(=O)N(CC(=O)Nc2ccc(Cl)c(S(=O)(=O)N3CCCCC3)c2)C1=O (stereo not given) | inconclusive [inhibitor, single point] |  |
| NS(=O)(=O)c1ccc(CCNCc2ccccc2OCc2ccc(Cl)cc2)cc1 | active: 12.6 µM |  |
| CN(C)c1ncc(S(=O)(=O)c2ccc(Cl)cc2)c(-c2ccccc2)n1 | inconclusive [inhibitor, single point] |  |
| Cc1ccc(-c2nc3cc(Br)cnc3nc2-c2ccc(C)cc2)cc1 | active: 12.6 µM |  |
| CCC(=O)Nc1cccc(NC(=O)c2ccc3c(c2)OCO3)c1 | inconclusive [inhibitor, single point] |  |
| COc1cc(CN2CC(=O)N(c3ccccc3Cl)C2=S)cc(OC)c1OC | inconclusive [inhibitor, single point] |  |
| CN1/C(=C\C(=O)COC(=O)c2ccc(O)c(O)c2)C(C)(C)c2ccccc21 | inconclusive [inhibitor, partial curve, poor fit] |  |
| Cc1cc(NC(=O)C2CCCC2)n(-c2nc3ccccc3[nH]2)n1 |  | inactive: 4.76% |
| O=c1cc(Nc2ccc3c(c2)OCO3)[nH]c(=O)n1-c1ccc(Br)cc1 | inconclusive [inhibitor, single point] |  |
| COc1ccc2cc3cc(C(=O)NCCc4ccc(OC)c(OC)c4)oc3nc2c1 | inconclusive [inhibitor, full curve] |  |
| O=C(/C=C(\O)c1ccccc1)C(=O)NNC(=O)c1ccccc1 |  | inactive: 7.07% |
| FC(F)(F)c1nc2ccccc2n2c(-c3ccc(Cl)cc3)nnc12 |  | inactive: 5.14% |
| CC1=C(C(=O)OCCCCCl)C(c2cc3c(cc2Br)OCO3)NC(=O)N1 (stereo not given) |  | inactive: -10.8% |
| Cc1nn2c3ccccc3nc2c2ccccc12 | active: 12.6 µM |  |
| C=CCc1c(C)nc(SC)nc1Nc1ccc(C)cc1 | active: 10 µM |  |
| O=C(Nc1cccc(S(=O)(=O)N2CCCCC2)c1)c1ccc(Cl)nc1 | inconclusive [inhibitor, single point] |  |
| Cc1cc(C(=O)COC(=O)COc2ccccc2C#N)c(C)n1CC1CCCO1 (stereo not given) |  | inactive: 10.6% |
| O=C(CCCc1ccccc1)Nc1ccnn1C1CCN(Cc2ccc(Cl)cc2)CC1 | inconclusive [inhibitor, single point] |  |
